Legend:
MRSA strain USA300 [1] = assay: microbe, parasite or virus in culture; settings: for effect on the growth of the bacteria: 1 μg/mL; for activity at 1 µg/mL / activity at 10 µg/mL: Staphylococcus aureus, read-out: Growth; for Growth: DMSO control = 100
MRSA strain USA300 [2] = assay: microbe, parasite or virus in culture; settings: for inhibition of rabbit blood hemolysis compared to diflunisal: 1 μg/mL; for hemolysis at 1 µg/mL / hemolysis at 10 µg/mL: Staphylococcus aureus, Erythrocyte, in Oryctolagus cuniculus; for hemolysis at 1 µg/mL / hemolysis at 10 µg/mL / Hemolysis: DMSO control = 100

CCCc1cc(C(=O)COc2ccc(-c3ccccc3)cc2)c(O)cc1O [4e-21]
effect on the growth of the bacteria (MRSA strain USA300 [1]): without affecting the growth of the bacteria
activity at 1 µg/mL (MRSA strain USA300 [1]): 83.5%
activity at 10 µg/mL (MRSA strain USA300 [1]): 5.2%
inhibition of rabbit blood hemolysis compared to diflunisal (MRSA strain USA300 [2]): greater inhibition of rabbit blood hemolysis
hemolysis at 1 µg/mL (MRSA strain USA300 [2]; 1 μg/mL compound): 24.2 ± 0.5%
hemolysis at 10 µg/mL (MRSA strain USA300 [2]; 10 μg/mL compound): 0.2%

CCCCCCc1cc(C(=O)COc2ccc([N+](=O)[O-])cc2)c(O)cc1O [4f-22]
Growth (MRSA strain USA300 [1]; 10 μg/mL compound): 105.9%
Hemolysis (MRSA strain USA300 [2]; 10 μg/mL compound): 28.0 ± 2.4%

COC(=O)c1ccccc1OCC(=O)c1c(O)cc(O)cc1O [4c-27]
activity at 10 µg/mL (MRSA strain USA300 [1]): 104%
hemolysis at 10 µg/mL (MRSA strain USA300 [2]; 10 μg/mL compound): 90 ± 1%

CCCCCCc1cc(C(=O)COc2cccc(F)c2)c(O)cc1O [4f-1]
activity at 1 µg/mL (MRSA strain USA300 [1]): 104%
activity at 10 µg/mL (MRSA strain USA300 [1]): 106%
hemolysis at 1 µg/mL (MRSA strain USA300 [2]; 1 μg/mL compound): 95.4 ± 1.2%
hemolysis at 10 µg/mL (MRSA strain USA300 [2]; 10 μg/mL compound): 9.3 ± 1.11%

CC(C)(C)c1ccc(OCC(=O)c2ccc(O)cc2O)cc1 [4a-20]
activity at 1 µg/mL (MRSA strain USA300 [1]): 108%
activity at 10 µg/mL (MRSA strain USA300 [1]): 4.3%
hemolysis at 1 µg/mL (MRSA strain USA300 [2]; 1 μg/mL compound): 79.7 ± 1.8%
hemolysis at 10 µg/mL (MRSA strain USA300 [2]; 10 μg/mL compound): -3.3 ± 0.1%

Cc1cc(C(=O)COc2ccc(C(C)(C)C)cc2)c(O)cc1O [4d-20]
effect on the growth of the bacteria (MRSA strain USA300 [1]): without affecting the growth of the bacteria
activity at 1 µg/mL (MRSA strain USA300 [1]): 104%
activity at 10 µg/mL (MRSA strain USA300 [1]): 0.9%
inhibition of rabbit blood hemolysis compared to diflunisal (MRSA strain USA300 [2]): greater inhibition of rabbit blood hemolysis
hemolysis at 1 µg/mL (MRSA strain USA300 [2]; 1 μg/mL compound): 22.9 ± 0.5%
hemolysis at 10 µg/mL (MRSA strain USA300 [2]; 10 μg/mL compound): -0.6 ± 0.1%

CCc1cc(C(=O)COc2ccccc2C(=O)OC)c(O)cc1O [4b-27]
activity at 10 µg/mL (MRSA strain USA300 [1]): 97.8%
hemolysis at 10 µg/mL (MRSA strain USA300 [2]; 10 μg/mL compound): 29.3 ± 2.1%

O=C(COc1cccc(Cl)c1)c1ccc(O)cc1O [4a-3]
activity at 1 µg/mL (MRSA strain USA300 [1]): 107%
activity at 10 µg/mL (MRSA strain USA300 [1]): 79.5%
hemolysis at 1 µg/mL (MRSA strain USA300 [2]; 1 μg/mL compound): 83.2 ± 4.7%
hemolysis at 10 µg/mL (MRSA strain USA300 [2]; 10 μg/mL compound): 1.2 ± 0.2%

Cc1cc(C(=O)COc2cc(F)cc(F)c2)c(O)cc1O [4d-15]
activity at 1 µg/mL (MRSA strain USA300 [1]): 101%
activity at 10 µg/mL (MRSA strain USA300 [1]): 102%
hemolysis at 1 µg/mL (MRSA strain USA300 [2]; 1 μg/mL compound): 149 ± 19.2%
hemolysis at 10 µg/mL (MRSA strain USA300 [2]; 10 μg/mL compound): 12.5 ± 3.2%

O=C(COc1ccc(Cl)cc1)c1ccc(O)cc1O [4a-4]
Growth (MRSA strain USA300 [1]; 1 μg/mL compound): 96.7%
Growth (MRSA strain USA300 [1]; 10 μg/mL compound): 95.5%
Hemolysis (MRSA strain USA300 [2]; 1 μg/mL compound): 119.1 ± 7.4%
Hemolysis (MRSA strain USA300 [2]; 10 μg/mL compound): 7.5 ± 0.5%

Cc1cc(C(=O)COc2ccc(Br)cc2)c(O)cc1O [4d-7]
activity at 10 µg/mL (MRSA strain USA300 [1]): 103%
hemolysis at 10 µg/mL (MRSA strain USA300 [2]; 10 μg/mL compound): 29.5 ± 2.9%

Cc1cc(C(=O)COc2ccccc2F)c(O)cc1O [4d-5]
Growth (MRSA strain USA300 [1]; 10 μg/mL compound): 103.6%
Hemolysis (MRSA strain USA300 [2]; 10 μg/mL compound): 34.1 ± 3.6%

Cc1cc(C(=O)COc2ccc(-c3ccccc3)cc2)c(O)cc1O [4d-21]
activity at 1 µg/mL (MRSA strain USA300 [1]): 108%
activity at 10 µg/mL (MRSA strain USA300 [1]): 3.2%
hemolysis at 1 µg/mL (MRSA strain USA300 [2]; 1 μg/mL compound): 52.1 ± 10.8%
hemolysis at 10 µg/mL (MRSA strain USA300 [2]; 10 μg/mL compound): 5.7 ± 1.3%

Cc1cc(C(=O)COc2ccc(Cl)cc2)c(O)cc1O [4d-4]
Growth (MRSA strain USA300 [1]; 1 μg/mL compound): 99.5%
Growth (MRSA strain USA300 [1]; 10 μg/mL compound): 103.8%
Hemolysis (MRSA strain USA300 [2]; 1 μg/mL compound): 169.3 ± 23.8%
Hemolysis (MRSA strain USA300 [2]; 10 μg/mL compound): 12.9 ± 2.8%

Cc1cc(C(=O)COc2ccc(F)c(F)c2)c(O)cc1O [4d-14]
activity at 1 µg/mL (MRSA strain USA300 [1]): 106%
activity at 10 µg/mL (MRSA strain USA300 [1]): 109%
hemolysis at 1 µg/mL (MRSA strain USA300 [2]; 1 μg/mL compound): 221 ± 20.5%
hemolysis at 10 µg/mL (MRSA strain USA300 [2]; 10 μg/mL compound): 3.1 ± 0.3%

O=C(COc1c(F)cccc1F)c1c(O)cc(O)cc1O [4c-13]
Growth (MRSA strain USA300 [1]; 10 μg/mL compound): 114.7%
Hemolysis (MRSA strain USA300 [2]; 10 μg/mL compound): 23.0 ± 3.1%

CCc1cc(C(=O)COc2ccc(C(C)C)cc2)c(O)cc1O [4b-19]
activity at 1 µg/mL (MRSA strain USA300 [1]): 95.4%
activity at 10 µg/mL (MRSA strain USA300 [1]): 2.1%
hemolysis at 1 µg/mL (MRSA strain USA300 [2]; 1 μg/mL compound): 55.5 ± 9.8%
hemolysis at 10 µg/mL (MRSA strain USA300 [2]; 10 μg/mL compound): -1.3 ± 0.2%

From patent US20180021277A1, “ANTI-VIRULENCE COMPOSITIONS AND METHODS” (priority 2012, published 2018)
